Source: the BET-seq Pho4 binding data (Le et al. 2018)
This is one part of the list. The energies were worked out here from pooled read counts, against the library average; single values are noisy.

Each sequence was assayed against T1, Pho4 (S. cerevisiae) (UniProt P07270) (assay: relative binding free energy (BET-seq); higher = weaker binding). Conditions: reference: library average.
T1 sequence: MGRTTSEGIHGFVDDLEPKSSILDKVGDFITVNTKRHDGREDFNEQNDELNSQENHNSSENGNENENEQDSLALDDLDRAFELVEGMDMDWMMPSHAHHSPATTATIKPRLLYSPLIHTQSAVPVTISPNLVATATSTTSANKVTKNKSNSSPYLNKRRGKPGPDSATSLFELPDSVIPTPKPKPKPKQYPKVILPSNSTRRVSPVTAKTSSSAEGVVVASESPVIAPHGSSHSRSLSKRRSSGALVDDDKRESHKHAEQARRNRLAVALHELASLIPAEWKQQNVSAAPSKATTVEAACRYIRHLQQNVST

Question: TCCTGCACGTGGTGGG was tested. Which “relative binding free energy” value did it give?
Answer: -0.13 kcal/mol

Question: Which “relative binding free energy” value does the source give for AGGTGCACGTGCTGTT here?
Answer: -0.09 kcal/mol

Question: ATAGGCACGTGGCGGC was tested. Which “relative binding free energy” value did it give?
Answer: -0.21 kcal/mol

Question: Which “relative binding free energy” value does the source give for TGGTGCACGTGTTCAG here?
Answer: -0.09 kcal/mol

Question: TTAGGCACGTGGAAGG was tested. Which “relative binding free energy” value did it give?
Answer: -0.02 kcal/mol

Question: For CTTAGCACGTGTGTGT, which “relative binding free energy” value is on record?
Answer: -0.05 kcal/mol

Question: How did the “relative binding free energy” value turn out when CTGAGCACGTGTTGAT was run?
Answer: 0.02 kcal/mol

Question: For TTTCTCACGTGAAGGT, which “relative binding free energy” value is on record?
Answer: 0.33 kcal/mol

Question: With GTTAGCACGTGATTTA as the sequence, how does the “relative binding free energy” value read?
Answer: 0.04 kcal/mol

Question: How did the “relative binding free energy” value turn out when GACTGCACGTGGGGTT was run?
Answer: -0.13 kcal/mol

Question: ATGATCACGTGGTCTT was tested. Which “relative binding free energy” value did it give?
Answer: 0.15 kcal/mol

Question: GAAAGCACGTGGGTGT was tested. Which “relative binding free energy” value did it give?
Answer: -0.1 kcal/mol

Question: How did the “relative binding free energy” value turn out when AGGTACACGTGGGTGG was run?
Answer: -0.08 kcal/mol

Question: For TCGAGCACGTGGTTTG, which “relative binding free energy” value is on record?
Answer: -0.21 kcal/mol

Question: ATATGCACGTGAGGTT was tested. Which “relative binding free energy” value did it give?
Answer: 0.11 kcal/mol

Question: With TGTGACACGTGGGTTG as the sequence, how does the “relative binding free energy” value read?
Answer: -0.08 kcal/mol

Question: TAATGCACGTGAGTTG was tested. Which “relative binding free energy” value did it give?
Answer: 0.13 kcal/mol

Question: AATTACACGTGTGTTA was tested. Which “relative binding free energy” value did it give?
Answer: -0.03 kcal/mol

Question: GGGTACACGTGTTGGT was tested. Which “relative binding free energy” value did it give?
Answer: 0.18 kcal/mol

Question: For TTTATCACGTGACGAT, which “relative binding free energy” value is on record?
Answer: 0.36 kcal/mol

Question: GGATACACGTGCGTGT was tested. Which “relative binding free energy” value did it give?
Answer: -0.01 kcal/mol

Question: How did the “relative binding free energy” value turn out when TGAAACACGTGTGTAG was run?
Answer: -0.02 kcal/mol

Question: TTAGTCACGTGGGCGG was tested. Which “relative binding free energy” value did it give?
Answer: 0 kcal/mol

Question: TGGGACACGTGTCTTT was tested. Which “relative binding free energy” value did it give?
Answer: 0.21 kcal/mol

Question: Which “relative binding free energy” value does the source give for TTGGACACGTGTCGCG here?
Answer: 0.07 kcal/mol

Question: For TCTGTCACGTGTTAAA, which “relative binding free energy” value is on record?
Answer: 0.18 kcal/mol

Question: ATGTCCACGTGTTAAT was tested. Which “relative binding free energy” value did it give?
Answer: 0.06 kcal/mol

Question: ATAAGCACGTGTGCTA was tested. Which “relative binding free energy” value did it give?
Answer: 0.02 kcal/mol

Question: For CGTGCCACGTGAGGGT, which “relative binding free energy” value is on record?
Answer: 0.04 kcal/mol

Question: With CGTGTCACGTGGACGG as the sequence, how does the “relative binding free energy” value read?
Answer: 0.17 kcal/mol

Question: How did the “relative binding free energy” value turn out when AAAGTCACGTGGTGGT was run?
Answer: 0.03 kcal/mol

Question: With AGTTGCACGTGAGGGG as the sequence, how does the “relative binding free energy” value read?
Answer: 0.27 kcal/mol

Question: Which “relative binding free energy” value does the source give for TGGGACACGTGGTACG here?
Answer: -0.11 kcal/mol

Question: How did the “relative binding free energy” value turn out when CTTTTCACGTGGGATC was run?
Answer: 0.19 kcal/mol

Question: ATTAGCACGTGTGCGA was tested. Which “relative binding free energy” value did it give?
Answer: -0.1 kcal/mol

Question: How did the “relative binding free energy” value turn out when GTCGTCACGTGGTATT was run?
Answer: 0.02 kcal/mol

Question: For TAGTTCACGTGATGAA, which “relative binding free energy” value is on record?
Answer: 0.19 kcal/mol

Question: TCGTTCACGTGTGGAA was tested. Which “relative binding free energy” value did it give?
Answer: 0.26 kcal/mol

Question: How did the “relative binding free energy” value turn out when TTTGTCACGTGACGCG was run?
Answer: 0.23 kcal/mol

Question: For GGGACCACGTGGGGAA, which “relative binding free energy” value is on record?
Answer: -0.06 kcal/mol

Question: For GAGAACACGTGTGGAG, which “relative binding free energy” value is on record?
Answer: 0.14 kcal/mol

Question: How did the “relative binding free energy” value turn out when GTTAGCACGTGATGGA was run?
Answer: 0.09 kcal/mol

Question: For GTTTGCACGTGGCAGG, which “relative binding free energy” value is on record?
Answer: 0.12 kcal/mol

Question: With GGTCCCACGTGGTGTG as the sequence, how does the “relative binding free energy” value read?
Answer: -0.12 kcal/mol

Question: For CAGGACACGTGCGTGG, which “relative binding free energy” value is on record?
Answer: 0.03 kcal/mol

Question: With TTGGTCACGTGCAGTT as the sequence, how does the “relative binding free energy” value read?
Answer: 0.11 kcal/mol

Question: For TGTATCACGTGGGTCT, which “relative binding free energy” value is on record?
Answer: 0.01 kcal/mol

Question: How did the “relative binding free energy” value turn out when AGTATCACGTGAGTTG was run?
Answer: 0.36 kcal/mol

Question: With TTGTGCACGTGAAAGG as the sequence, how does the “relative binding free energy” value read?
Answer: 0.23 kcal/mol

Question: With AAGTTCACGTGGCTTT as the sequence, how does the “relative binding free energy” value read?
Answer: 0.1 kcal/mol

Question: For GGTAACACGTGGTTAA, which “relative binding free energy” value is on record?
Answer: -0.09 kcal/mol

Question: GACGTCACGTGTAGTT was tested. Which “relative binding free energy” value did it give?
Answer: 0.43 kcal/mol

Question: TGTTTCACGTGTGAGA was tested. Which “relative binding free energy” value did it give?
Answer: 0.32 kcal/mol

Question: With TCTGTCACGTGTAGGG as the sequence, how does the “relative binding free energy” value read?
Answer: 0.15 kcal/mol

Question: TAGGGCACGTGAGCGA was tested. Which “relative binding free energy” value did it give?
Answer: -0.07 kcal/mol

Question: For GTGTGCACGTGACTGG, which “relative binding free energy” value is on record?
Answer: 0.13 kcal/mol

Question: With TGAAGCACGTGGTTAT as the sequence, how does the “relative binding free energy” value read?
Answer: -0.09 kcal/mol
